# Source: the supplement of paper PMC11741623
# The list shows a part of the results. Interaction screen of human proteins with wild-type SARS-CoV-2 proteins by split-DHFR complementation in yeast, 1 µg/mL methotrexate. Value = fitness of the pair (three or more lineages) minus that of the viral protein without a human partner, on a scale set by negative (0) and fused positive (1) controls, mean of up to three cultures; higher = more likely to interact. Active = false discovery rate below 0.05 (one-sided t-test) in at least one culture. Nearly all pairs are not hits, and differences among them are mostly noise (correlation between cultures about 0.3); most hits were seen in one culture only. Human sequences are the Swiss-Prot entries looked up by gene name; the clone may be another isoform. NSP2 values were corrected by the authors for a growth advantage. Listed are human proteins with a hit and a random twelfth of the others.
# B1: TAS2R41, P59536 (protein)
# chain: MQAALTAFFVLLFSLLSLLGIAANGFIVLVLGREWLRYGRLLPLDMILISLGASRFCLQLVGTVHNFYYSAQKVEYSGGLGRQFFHLHWHFLNSATFWFCSWLSVLFCVKIANITHSTFLWLKWRFPGWVPWLLLGSVLISFIITLLFFWVNYPVYQEFLIRKFSGNMTYKWNTRIETYYFPSLKLVIWSIPFSVFLVSIMLLINSLRRHTQRMQHNGHSLQDPSTQAHTRALKSLISFLILYALSFLSLIIDAAKFISMQNDFYWPWQIAVYLCISVHPFILIFSNLKLRSVFSQLLLLARGFWVA
# B2: THEM5, Q8N1Q8 (protein)
# chain: MIRRCFQVAARLGHHRGLLEAPRILPRLNPASAFGSSTDSMFSRFLPEKTDLKDYALPNASWCSDMLSLYQEFLEKTKSSGWIKLPSFKSNRDHIRGLKLPSGLAVSSDKGDCRIFTRCIQVEGQGFEYVIFFQPTQKKSVCLFQPGSYLEGPPGFAHGGSLAAMMDETFSKTAFLAGEGLFTLSLNIRFKNLIPVDSLVVMDVELDKIEDQKLYMSCIAHSRDQQTVYAKSSGVFLQLQLEEESPQ
# B3: TCF19, Q9Y242 (protein)
# chain: MLPCFQLLRIGGGRGGDLYTFHPPAGAGCTYRLGHRADLCDVALRPQQEPGLISGIHAELHAEPRGDDWRVSLEDHSSQGTLVNNVRLPRGHRLELSDGDLLTFGPEGPPGTSPSEFYFMFQQVRVKPQDFAAITIPRSRGEARVGAGFRPMLPSQGAPQRPLSTFSPAPKATLILNSIGSLSKLRPQPLTFSPSWGGPKSLPVPAPPGEMGTTPSAPPQRNRRKSVHRVLAELDDESEPPENPPPVLMEPRKKLRVDKAPLTPTGNRRGRPRKYPVSAPMAPPAVGGGEPCAAPCCCLPQEETVAWVQCDGCDVWFHVACVGCSIQAAREADFRCPGCRAGIQT
# Tests used:
# Test in all cases: yeast fitness gain over the viral ORF with no human partner (scaled fitness); higher = more likely to interact
# [1] = target: SARS-CoV-2 E
# Method: (§1)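 Split mouse DHFR complementation in pooled diploid yeast: human ORFeome clones carry one fragment and viral ORFs the other; barcoded lineages compete in 1 µg/mL methotrexate and fitness is read by barcode sequencing in up to three cultures.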
# [2] = target: SARS-CoV-2 M
# Method: as §1
# [3] = target: SARS-CoV-2 N
# Method: as §1
# [4] = target: SARS-CoV-2 NSP1
# Method: as §1
# [5] = target: SARS-CoV-2 NSP10
# Method: as §1
# [6] = target: SARS-CoV-2 NSP12
# Method: as §1
# [7] = target: SARS-CoV-2 NSP13
# Method: as §1
# [8] = target: SARS-CoV-2 NSP14
# Method: as §1
# [9] = target: SARS-CoV-2 NSP15
# Method: as §1
# [10] = target: SARS-CoV-2 NSP16
# Method: as §1
# [11] = target: SARS-CoV-2 NSP2
# Method: as §1
# [12] = target: SARS-CoV-2 NSP4
# Method: as §1
# [13] = target: SARS-CoV-2 NSP5
# Method: as §1
# [14] = target: SARS-CoV-2 NSP6
# Method: as §1
# [15] = target: SARS-CoV-2 NSP7
# Method: as §1
# [16] = target: SARS-CoV-2 NSP8
# Method: as §1
# [17] = target: SARS-CoV-2 NSP9
# Method: as §1
# [18] = target: SARS-CoV-2 ORF10
# Method: as §1
# [19] = target: SARS-CoV-2 ORF3A
# Method: as §1
# [20] = target: SARS-CoV-2 ORF3B
# Method: as §1
# [21] = target: SARS-CoV-2 ORF6
# Method: as §1
# [22] = target: SARS-CoV-2 ORF7A
# Method: as §1
# [23] = target: SARS-CoV-2 ORF7B
# Method: as §1
# [24] = target: SARS-CoV-2 ORF8
# Method: as §1
# [25] = target: SARS-CoV-2 ORF9B
# Method: as §1
# [26] = target: SARS-CoV-2 ORF9Bwu (the 73-codon ORF)
# Method: as §1
# [27] = target: SARS-CoV-2 S
# Method: as §1
Binder,yeast fitness gain [1],yeast fitness gain [2],yeast fitness gain [3],yeast fitness gain [4],yeast fitness gain [5],yeast fitness gain [6],yeast fitness gain [7],yeast fitness gain [8],yeast fitness gain [9],yeast fitness gain [10],yeast fitness gain [11],yeast fitness gain [12],yeast fitness gain [13],yeast fitness gain [14],yeast fitness gain [15],yeast fitness gain [16],yeast fitness gain [17],yeast fitness gain [18],yeast fitness gain [19],yeast fitness gain [20],yeast fitness gain [21],yeast fitness gain [22],yeast fitness gain [23],yeast fitness gain [24],yeast fitness gain [25],yeast fitness gain [26],yeast fitness gain [27]
B1,inactive: 0.125,inactive: 0.0375,inactive: 0.0523,inactive: 0.0363,inactive: 0.0389,inactive: -0.0416,inactive: 0.00536,inactive: -0.0372,inactive: -0.063,inactive: 0.0474,inactive: -0.171,inactive: 0.315,inactive: 0.104,inactive: -0.00814,inactive: 0.0385,inactive: -0.0167,inactive: 0.119,inactive: 0.00284,inactive: -0.00666,inactive: 0.00987,inactive: 0.0242,active: 0.402,inactive: 0.104,inactive: -0.000901,inactive: 0.0124,inactive: -0.014,inactive: 0.0528
B2,inactive: 0.0908,inactive: -0.042,inactive: 0.0583,inactive: -0.0355,inactive: 0.0232,inactive: -0.101,inactive: 0.0192,–,inactive: 0.072,–,inactive: -0.047,–,inactive: 0.0723,inactive: 0.0571,inactive: 0.104,inactive: 0.0611,inactive: 0.0541,inactive: -0.0609,inactive: -0.00786,inactive: -0.0222,inactive: -0.00261,inactive: -0.0323,inactive: 0.0647,inactive: 0.0431,inactive: -0.0511,–,inactive: 0.0393
B3,inactive: -0.0269,inactive: 0.0191,inactive: -0.14,inactive: 0.0901,inactive: -0.0101,inactive: -0.0477,inactive: -0.026,–,inactive: -0.0139,inactive: -0.0121,inactive: -0.124,–,inactive: -0.00104,inactive: 0.00325,inactive: 0.0214,inactive: 0.0282,inactive: -0.0193,inactive: -0.0547,inactive: 0.0698,inactive: 0.017,inactive: -0.0353,inactive: 0.0349,inactive: -0.0266,inactive: 0.0059,inactive: -0.0338,inactive: 0.0671,inactive: -0.0614
